Experimental data as given in PubChem BioAssay AID686979 (National Center for Advancing Translational Sciences (NCATS), 2013).
Where “and” joins values, the source holds several entries; their conditions need not be identical. Equal entries are not always repeated. Screen size: about 420,000 compounds; about 50,000 (12%) were called active. The inconclusive results got no clear call from the source; some entries with a clear call stand among them for comparison. The call rests on the fitted dose curve; in most records, active means well fitted inhibition curve with a large enough effect; inconclusive means small, poorly fitted or top-dose-only effect; inactive means flat fitted curve, though single readings scatter. Where the call is inconclusive, the potency comes from a doubtful curve fit.

Experiment: qHTS for Inhibitors of human tyrosyl-DNA phosphodiesterase 1 (TDP1): qHTS in cells in presence of CPT; further: nearly all actives have a fitted effect of over 55% in size
Details: chicken DT40 Tdp1-/-;hTDP1 cells + 20 nM CPT, ATP luminescence, 48 h; activity change, negative = growth inhibition: at 46.2 µM (top of the series) unless noted
Procedure, shortened: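 Chicken DT40 Tdp1-/- cells complemented with human TDP1, 400 cells/well, exposed to compounds plus 20 nM camptothecin for at least 48 h at 37 C; viability read as ATP content by CellTiter-Glo luminescence.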
On the % scale 0 is the no-effect control and ±100 the full control effect; potency means the concentration at half of the fitted maximal effect; tags describe the fitted curve by direction and shape.

| Compound | activity change, negative = growth inhibition | Potency |
| --- | --- | --- |
| Fc1ccc(Oc2ccc3nnc(C(F)(F)F)n3n2)cc1 | inactive: -24.3% |  |
| CCOC(=O)CNC(=O)CSc1nnc(NC(=O)c2ccc(S(=O)(=O)N3CCOCC3)cc2)s1 | inactive: -7.13% |  |
| O=C(Nc1ccc2c(c1)oc1ccccc12)C1CC1 |  | active: 14.6 µM |
| CC(=O)N1CCCC1C(=O)O (stereo unspecified) |  | inconclusive: 6.51 µM [inhibitor, single point] |
| COc1ccc(N/C(C)=C/C(=S)Nc2ccccc2)cc1 |  | active: 10.3 µM |
| CCC(=O)N1CCc2cc(Br)cc(S(=O)(=O)CCC(=O)N(CC)CC)c21 | inactive: 21.7% |  |
| COc1cccc(CNC(=O)c2cc3c(=O)oc4ccc(C)cc4c3s2)c1 |  | inconclusive: 29.1 µM [inhibitor, single point] |
| CCc1ccccc1NC(=O)CN1CCN(CC(=O)Nc2cc(C)ccc2OC)CC1 |  | inconclusive: 10.3 µM [inhibitor, partial curve, poor fit] |
| Cc1ccc2nc(-c3ccccn3)cc(C(=O)Nc3ccc4c(c3)OCO4)c2c1 |  | inconclusive: 29.1 µM [inhibitor, single point] |
| Cc1cccc2cc(CN(Cc3cccs3)C(=S)NCC3CCCO3)c(=O)[nH]c12 (stereo unspecified) |  | inconclusive: 29.1 µM [inhibitor, single point] |
| Cc1cc(C)cc(S(=O)(=O)Cc2noc(C(=O)NCc3ccccc3)c2C(=O)NCc2ccccc2)c1 |  | inconclusive: 29.1 µM [inhibitor, single point] |
| COC(=O)[C@@]1(Cc2ccc(F)cc2)[C@H]2c3cc(C(=O)N4CCCC4)n(CCO)c3C[C@H]2CN1C(=O)c1ccccc1 |  | inconclusive: 14.6 µM [inhibitor, single point] |
| COCCCn1c(SCC(=O)NNC(=O)c2cccc(O)c2)nnc1-c1ccncc1 | inactive: 9.69% |  |
| Cn1cc(/C=C/C(=O)N2CCCC(C(=O)c3cccc(C(F)(F)F)c3)C2)cn1 (stereo unspecified) | inactive: -2.23% |  |
| N#Cc1ccccc1Sc1ccccc1C(=O)NCC(c1ccco1)N1CCCC1 (stereo unspecified) |  | active: 23.1 µM |
| Cc1cc(Cl)ccc1NC(=S)NCCC(c1ccccc1)c1ccccc1 |  | active: 15.8 µM |
| COc1cc2c(cc1OC)C1Cc3ccc(OC)c(OC)c3CN1CC2 (stereo unspecified) |  | inconclusive: 29.1 µM [inhibitor, single point] and inconclusive: 25.9 µM [inhibitor, single point] |
| O=C(CN1CCN(c2ccc(Cl)cc2)CC1)N1CCCC1 | inactive: -27.3% |  |
| CC(=O)Nc1ccc(S(=O)(=O)N(C)CC(=O)Nc2cccc(S(=O)(=O)N3CCCC3)c2)cc1 |  | inconclusive: 14.6 µM [inhibitor, single point] |
| C/C(=N\NC(=O)c1cccc(O)c1)c1cccc(NC(=O)c2ccc(F)cc2)c1 |  | active: 10.3 µM |
| COc1ccc(NC(=O)c2c(NC(=O)c3ccc(Br)cc3)sc3c2CCCC3)cc1 |  | inconclusive: 23.1 µM [inhibitor, single point] |
| COc1ccc(/C=N/Nc2nc3ccccc3[nH]2)cc1OC |  | inconclusive: 16.4 µM [inhibitor, single point] |
| CCOC(=O)[C@]12CCCC=C1N(Cc1ccc(Cl)cc1Cl)C(=O)[C@H](CC(=O)N1CCOCC1)C2 |  | inconclusive: 16.4 µM [inhibitor, single point] |

| Compound | activity change, negative = growth inhibition | Potency |
| --- | --- | --- |
| O=C1NC[C@H](CC2CCCCC2)N(CCc2cc(C(F)(F)F)cc(C(F)(F)F)c2)C1=O |  | inconclusive: 29.6 µM [inhibitor, single point] |
| CN(C)CCO[C@@H](c1ccc(Cl)cc1)c1ccccn1 | inactive: 3.33% |  |
| O=C(CCCN1C(=O)/C(=C/c2cccc(Br)c2)SC1=S)NCCCN1CCOCC1 |  | active: 25.9 µM |
| CC(C)(C)c1ccc(C(=O)Nc2ccc(N3CCOCC3)cc2)cc1 |  | active: 18.4 µM |
| CC(=O)N1CCN(c2cccc(C)c2C)CC1 | inactive: 4.39% |  |
| CN(C)Cc1c(O)ccc2c1O/C(=C\C=C\c1ccccc1)C2=O | inactive: -29.4% |  |
| Cc1ccc(O)c(NC(=O)c2cc(-c3ccccc3O)no2)c1 |  | inconclusive: 14.6 µM [inhibitor, single point] |
| Cc1cc(NC(=O)Nc2nnc(N(C)Cc3ccccc3)s2)ccc1Br |  | inconclusive: 18.4 µM [inhibitor, single point] |
| COc1ccc(N(C=O)C(C(=O)Nc2c(C)cccc2C)c2ccccc2)cc1 (stereo unspecified) | inconclusive: -30.1% [inhibitor] |  |
| O=C(NCCC1CC1(Cl)Cl)c1ccc([N+](=O)[O-])cc1 (stereo unspecified) | inactive: 1.04% |  |
| O=C1C=C(c2cccc(OCc3ccccc3)c2)C[C@@H](c2ccc3c(c2)OCO3)C1 | inactive: -29.4% |  |
| Cn1cc(S(=O)(=O)N2CCOCC2)cc1C(=O)Nc1ccc(Cl)c(C(F)(F)F)c1 |  | inconclusive: 25.9 µM [inhibitor, single point] |
| CCOC(=O)N1CCN(S(=O)(=O)c2ccc3c(c2)CCN3C(=O)C2CC2)CC1 | inactive: -27.2% |  |
| CCOc1cc2c(cc1O)C(=NO)CC1C2CCC2(C)C(O)CCC12 (stereo unspecified) |  | active: 0.184 µM |
| COC(=O)c1[nH]c2c(c1C)C(=O)CC(c1cc(OC)ccc1OC)C2 (stereo unspecified) |  | active: 3.26 µM |
| CCNc1nc(NCC)nc(SCCOC(=O)Nc2ccc(Cl)cc2Cl)n1 |  | inconclusive: 29.1 µM [inhibitor, single point] |
| CC(=O)Nc1ccc(S(=O)(=O)Oc2cccc(/C=C3\SC(N)=NC3=O)c2)cc1 |  | inconclusive: 20.6 µM [inhibitor, single point] |
| Cc1cc(C)c(C)c(S(=O)(=O)N2CCN(C(=O)c3ccncc3)CC2)c1C |  | inconclusive: 29.1 µM [inhibitor, single point] |
| Cc1cc(C)c2cc(C#N)c(NCCNC(=S)NCCCN3CCOCC3)nc2c1 |  | inconclusive: 20.6 µM [inhibitor, single point] |
| O=C(C(=O)N1CCCN(Cc2ccc(F)cc2)CC1)c1ccccc1 | inactive: 1.8% |  |
| CCOC(=O)C(Cc1ccc(O)cc1)NC(=O)c1cc2c(cn1)[nH]c1ccccc12 (stereo unspecified) | inactive: -22% |  |
| CCCNc1nc(Cl)nc(Nc2ccc(Cl)cc2)n1 |  | inconclusive: 20.6 µM [inhibitor, single point] |
| Cc1nc(COc2ccc(C(=O)Nc3ccccc3N3CCOCC3)cc2)cs1 |  | inconclusive: 23.1 µM [inhibitor, single point] |
